The source of these data is the antibiotic and cytotoxicity screens of Wong et al. (2023).

This is one part of the list.

Test [1] has as its system HSkMC (human skeletal muscle cells). Briefly: cytotoxicity call (relative viability < 0.9). The note with it: 10 µM.
Test [2] concerns HepG2. The experiment in a line: cytotoxicity call (relative viability < 0.9). The note with it: 10 µM.
Test [3] concerns S. aureus RN4220. Briefly: growth inhibition call (relative growth <= 0.2). The note with it: 50 µM.

For the molecule `CCN(CC)CCOC(=O)C(O)(c1ccccc1)c1ccccc1.Cl`, the cytotoxicity call in test [1] and in test [2] was “inactive” in each case. In addition, in test [3], the growth inhibition call is “inactive”.
For the molecule `CC(C)c1c(CN(C)C(C)Cc2ccccc2)n(C)n(-c2ccccc2)c1=O` (stereo not given), the cytotoxicity call in test [1] and in test [2] was “inactive” throughout. Besides, the growth inhibition call in test [3] was “inactive”.
As for `CC(=CCn1c[n+](C)c2c(N)ncnc21)CCC1(C)C(C)CCC2(C)C(C)=CCCC21.[Cl-]` (stereo not given), the cytotoxicity call in test [1] and in test [2] was “inactive” in each case. Besides, the growth inhibition call in test [3] is “active”.
In the case of `Cc1n[nH]c(=O)nc1N1CCN(C)CC1`, the cytotoxicity call in test [1] and in test [2] was “inactive” throughout. Moreover, in test [3], the growth inhibition call is “inactive”.
As for `COC(=O)[C@@]1(Cc2ccccc2CN=[N+]=[N-])N=C(c2ccc(OCCCO)cc2)O[C@H]1c1ccccc1N=[N+]=[N-]`, the cytotoxicity call in test [1] and in test [2] was “inactive” in each case. For the same molecule, the growth inhibition call in test [3] is “inactive”.
`O=C1[O][SbH]23[O]C(=O)C([O]2)C2[O][SbH]4([O]C(=O)C([O]4)C1[O]3)[O]C2=O`: the cytotoxicity call in test [1] is “inactive”. Also, in test [2], the cytotoxicity call is “active”. Also, the growth inhibition call in test [3] is “inactive”.
Take `Br.CN1C2CC(OC(=O)C(CO)c3ccccc3)CC1C(O)C2` (racemic): the cytotoxicity call in test [1] and in test [2] was “inactive” in each case. Besides, the growth inhibition call in test [3] was “inactive”.
With `Cc1nc(-c2ccc(-c3ccc(C(=O)N4CCc5cc6c(cc54)C4(CCN(C)CC4)CO6)cc3)c(C)c2)no1`, the cytotoxicity call in test [1] and in test [2] was “active” throughout. Further, the growth inhibition call in test [3] is “active”.
In the case of `C[C@@]1(C(=O)O)[C@H]2CC[C@@H](O2)[C@@]1(C)C(=O)O`, the cytotoxicity call in test [1] and in test [2] was “active” in each case. Moreover, in test [3], the growth inhibition call was “inactive”.
For `CN1CC(CNC(=O)OCc2ccccc2)CC2c3cccc4c3c(cn4C)CC21` (stereo not given), the cytotoxicity call in test [1] was “inactive”. Further, the cytotoxicity call in test [2] is “active”. Also, in test [3], the growth inhibition call is “inactive”.
On to `N.N.[Cl][Pt][Cl]`, for which the cytotoxicity call in test [1] and in test [2] was “inactive” throughout. Further, the growth inhibition call in test [3] is “inactive”.
Regarding `Cc1cc(C)nc(NC2=NCCN2)n1`, the cytotoxicity call in test [1] and in test [2] was “inactive” in each case. Moreover, the growth inhibition call in test [3] was “inactive”.
For the molecule `CC1OC(OC2CC(O)C3(CO)C4C(O)CC5(C)C(C6=CC(=O)OC6)CCC5(O)C4CCC3(O)C2)C(O)C(O)C1O.O.O.O.O.O.O.O.O` (stereo not given), the cytotoxicity call in test [1] and in test [2] was “active” throughout. Besides, the growth inhibition call in test [3] was “inactive”.
For the molecule `COCCCNC(=O)[C@H]1N[C@H]2C[C@@H]1C[C@@H]2F`, the cytotoxicity call in test [1] and in test [2] was “inactive” throughout. Moreover, in test [3], the growth inhibition call is “inactive”.
Consider `COC(=O)[C@]1(Cc2ccccc2CN=[N+]=[N-])N=C(c2ccc(OCCCO)cc2)O[C@@H]1c1ccccc1CN=[N+]=[N-]`, for which the cytotoxicity call in test [1] is “inactive”. The cytotoxicity call in test [2] is “active”. In test [3], the growth inhibition call is “inactive”.
For `CCN1C[C@]2(COC)CC[C@H](O)[C@@]34[C@@H]2[C@@H](OC)[C@@H]([C@@H]13)[C@@]1(OC(C)=O)C[C@H](OC)[C@H]2C[C@H]4[C@@H]1[C@@H]2OC(C)=O`, the cytotoxicity call in test [1] and in test [2] was “inactive” each time. Besides, the growth inhibition call in test [3] is “inactive”.
For the molecule `CCCCC1C(=O)NC(=S)NC1=O`, the cytotoxicity call in test [1] and in test [2] was “inactive” in each case. The growth inhibition call in test [3] is “inactive”.
As to `Nc1ncnc2c1ncn2CCOCP(=O)(O)O`, the cytotoxicity call in test [1] and in test [2] was “inactive” in each case. The growth inhibition call in test [3] is “inactive”.
`CCCCC(=O)N1C[C@@H]2CCNC[C@@H]21`: the cytotoxicity call in test [1] and in test [2] was “inactive” each time. In addition, the growth inhibition call in test [3] was “inactive”.
On to `c1ccc2cc3c(cc2c1)-c1cccc2cccc-3c12`, for which the cytotoxicity call in test [1] was “inactive”. Further, the cytotoxicity call in test [2] was “active”. In test [3], the growth inhibition call was “inactive”.
With `CC(=O)O[C@H]1C[C@@H](OC(C)=O)C(C)(C)[C@@H]2C[C@@H](OC(C)=O)[C@]3(C)[C@H](CC[C@@]4(C)[C@H](c5ccoc5)C[C@H]5O[C@@]534)[C@@]12C`, the cytotoxicity call in test [1] and in test [2] was “inactive” each time. Further, in test [3], the growth inhibition call was “inactive”.
With `CCN(C(C)=O)c1cccc(-c2ccnc3c(C#N)cnn23)c1`, the cytotoxicity call in test [1] and in test [2] was “inactive” throughout. Besides, the growth inhibition call in test [3] is “inactive”.
As for `Cc1ccc(OC(=O)N(C)C[C@@H]2OCc3ccccc3-c3c(n(C)c4ccccc34)C(=O)N([C@@H](C)CO)C[C@@H]2C)cc1`, the cytotoxicity call in test [1] and in test [2] was “inactive” in each case. For the same molecule, the growth inhibition call in test [3] was “inactive”.
On to `CN(C)C(=O)N[C@H]1CN[C@H]2CCCO[C@H]21`, for which the cytotoxicity call in test [1] and in test [2] was “inactive” in each case. Further, the growth inhibition call in test [3] is “inactive”.
Turning to `NC[C@@H](O)c1ccc(Br)cc1`, the cytotoxicity call in test [1] and in test [2] was “inactive” in each case. Besides, the growth inhibition call in test [3] was “inactive”.
For `NCCc1ccc([N+](=O)[O-])cc1`, the cytotoxicity call in test [1] and in test [2] was “inactive” throughout. Moreover, the growth inhibition call in test [3] was “inactive”.
Take `CN1C(=O)[C@@]23C[C@]4([C@@]56C[C@]78SS[C@](CO)(C(=O)N7[C@@H]5Nc5ccccc56)N(C)C8=O)c5ccccc5N[C@H]4N2C(=O)[C@@]1(CO)SS3`: the cytotoxicity call in test [1] and in test [2] was “active” each time. In addition, the growth inhibition call in test [3] was “active”.
In the case of `CNC(=O)Oc1ccc2c(c1)C1(C)CCN(C)C1N2C.O=S(=O)(O)O` (stereo not given), the cytotoxicity call in test [1] was “inactive”. Besides, the cytotoxicity call in test [2] is “active”. Moreover, the growth inhibition call in test [3] is “inactive”.
Consider `Cc1ccc2c(CCN)c(C)n(C)c2c1`, for which the cytotoxicity call in test [1] is “inactive”. Besides, the cytotoxicity call in test [2] was “active”. For the same molecule, the growth inhibition call in test [3] was “inactive”.
For `Cc1ccc(OC(=O)N(C)C[C@H]2OCc3ccccc3-c3c(n(C)c4ccccc34)C(=O)N([C@@H](C)CO)C[C@H]2C)cc1`, the cytotoxicity call in test [1] and in test [2] was “inactive” each time. In addition, the growth inhibition call in test [3] was “inactive”.
